This note sets out measurements from ChEMBL document CHEMBL4888484, “Replenishing the malaria drug discovery pipeline: Screening and hit evaluation of the MMV Hit Generation Library 1 (HGL1) against asexual blood stage Plasmodium falciparum ,using a nano luciferase reporter read-out” (2022).

In all, about 150,000 compounds went through this assay and about 540 (0.36%) showed an effect of 50% or more. Some of the results follow.

In the experiment the test system is Plasmodium falciparum. Description: Primary screen in NF54 nanoGlo assay, in single point, at 2uM, 72h; a lower Z score goes with more inhibition. The format is functional, Erythrocyte. Particulars: timepoint 72 hour.
In general, % Inhibition refers to the drop in the measured response relative to a control, in per cent. `CC(C)(C)n1ncc2c1NC(=O)C[C@@H]2C1=Cc2ccccc2OC1`: the “% Inhibition” value came to 34% and the Z score is -3.82.
Regarding `Cc1cc(O)c2c(C)nn(-c3ccccc3)c2n1`, the “% Inhibition” value was -24% and the Z score is given as 2.85.
Take `O=C(NCc1ccc2c(c1)CCN2C(=O)c1ccccc1)NC[C@H]1CCCO1`: the “% Inhibition” value is -9% and the Z score is 1.68.
For `Cc1cccc(C)c1NC(=O)[C@H](C)N(C)CCc1nccs1` the same measures were 3% and -0.32.
The like results for `CCN1Cc2ccccc2CC1CN1CCC(COC)C1` (centres undefined) were, in that order, -8% and 1.21.
As to `CCCS(=O)(=O)N(CCOC)CC(=O)N(Cc1ccc(Cl)cc1)C1CCN(S(=O)(=O)c2ccc(Cl)cc2)CC1`, the “% Inhibition” value worked out at 15% and the Z score is given as -2.14.
Take `Cc1ccc(-c2nc3ccc(Cl)cn3c2Nc2ccc3c(c2)OCCO3)s1`: the “% Inhibition” value is given as -2% and the Z score is 0.31.
The like results for `O=C(COc1ccccc1)Nc1cccc(-c2cc3c(o2)CCN(C(=O)c2cccc4ccccc24)C3)c1` were, in that order, -10% and 2.01.
As for `NS(=O)(=O)c1cc(Cl)cc(CN2CC[C@]3(CNC(=O)C3)C2)c1`, the “% Inhibition” value is given as -5% and the Z score is listed as 0.72.
As to `CCOc1cccc2c1O[C@]1(C)C[C@@H]2NC(=O)N1c1ccc(F)cc1`, the “% Inhibition” value was 1% and the Z score is given as -0.17.
The like results for `COCCC[C@]1(C(=O)O)CCCN(C(=O)c2cc3c(cc2OC)CCC3)C1` were, in that order, -10% and 1.12.
In the case of `C[C@@H](Cn1cccn1)C(=O)NC1(C(N)=O)CCCC1`, the “% Inhibition” value is listed as 0% and the Z score worked out at 0.
Regarding `Cc1nc2c(c(-c3ccc(S(C)(=O)=O)cc3)n1)CCC2`, the “% Inhibition” value came out at 0% and the Z score was 0.01.
The like results for `CCN(CC(=O)Nc1ccc2c(c1)OCCO2)C(=O)c1ccc2c(c1)C(=O)N(Cc1ccccc1)C2=O` were, in that order, 6% and -0.87.
For `Cc1cn(Cc2nc(-c3cccnc3)n[nH]2)c(=O)[nH]c1=O` the same measures were -14% and 2.68.
The like results for `COc1cc(C(=O)N(C)C2CCCCCCC2)cc(OC)c1OCC(N)=O` were, in that order, -4% and 0.69.
Take `CCc1nc(CN(C)Cc2sccc2C)n[nH]1`: the “% Inhibition” value is -11% and the Z score came out at 1.79.
For the compound `C[N+]12CCCC[C@@H]1[C@H](COC(=O)c1ccccc1Cl)CCC2` (some centres undefined), the “% Inhibition” value amounted to 7% and the Z score is given as -0.65.
The like results for `COCCCn1cnnc1[C@H](C)NCc1cnc(-c2cccc(C)c2)nc1` were, in that order, -1% and 0.17.
For `CCOC(=O)c1cc(-c2ccc(OC)cc2)n(C2CCN(C(=O)c3cccc(OC)c3)CC2)n1` the same measures were 25% and -3.38.
For `Cc1cc(S(=O)(=O)N(CCO)CCO)ccc1F` the same measures were -22% and 2.63.
In the case of `NC1CC2CC(C(=O)NCCc3ccc4ncccc4c3)CC12` (centres undefined), the “% Inhibition” value was -15% and the Z score is recorded as 2.11.
The like results for `C#CC[C@H](CC(F)(F)F)NC(=O)c1ccncc1F` were, in that order, -14% and 2.06.
Consider `O=C1CN(C(=O)c2ccc(OC3CCC3)cc2Cl)CCN1CC(F)(F)F`, for which the “% Inhibition” value is listed as -7% and the Z score was 1.
As to `COC(=O)N[C@@H](C)c1nc(-c2cccnn2)no1`, the “% Inhibition” value was -12% and the Z score came to 1.15.
For `O=C(Cc1cccc(F)c1)N1CC2CC1CS2(=O)=O` (centres undefined) the same measures were -17% and 1.96.
For `Nc1nc(-c2cnc3ccccc3c2)cc2nncn12` the same measures were -5% and 0.88.
On to `O=C(Nc1nc(-c2cc(F)ccc2F)cs1)C1(n2cnnn2)CCOCC1`, for which the “% Inhibition” value was -5% and the Z score was 0.76.
Turning to `O=C(c1ccc2nc(-c3ccc(F)cc3)cn2c1)N1CCC(O)CC1`, the “% Inhibition” value is given as -3% and the Z score came to 0.59.
Regarding `Cc1c(Br)cccc1C(=O)NCCCc1nc(=O)[nH][nH]1`, the “% Inhibition” value was -8% and the Z score was 0.84.
The like results for `C[C@@H]1CCC[C@H](C)N1Cc1nnc(-c2ccco2)o1` were, in that order, -13% and 1.81.
On to `c1cnc(-c2nc(Cn3cc([C@H]4CCOC4)nn3)cs2)nc1`, for which the “% Inhibition” value came out at 6% and the Z score is -0.99.
For `Cc1csc([C@H](C)NS(=O)(=O)N2CCN(C)CC2)n1` the same measures were -4% and 0.71.
As to `Cc1cnccc1-c1ccc(C(=O)N2CC(C)(CO)C2)s1`, the “% Inhibition” value was -2% and the Z score worked out at 0.32.
The like results for `c1cc2c(c(OCc3ncc(C4CC4)o3)c1)OCCO2` were, in that order, -7% and 0.88.
The like results for `Cc1nc(C#N)cc(N[C@H]2CCC[C@H]2Cn2ccnn2)n1` were, in that order, -7% and 0.76.
On to `COCCOC1COCCC1NC(=O)N1CCCCO1` (centres undefined), for which the “% Inhibition” value is -17% and the Z score turned out to be 1.69.
`Cc1nc(CCN(C)C(=O)NC[C@H]2CCCN2C(C)C)no1`: the “% Inhibition” value is on record as -8% and the Z score is 1.41.
Regarding `CCO[C@H]1CN(C(=O)Cc2noc3ccccc23)C[C@@H]1O`, the “% Inhibition” value was -9% and the Z score is reported as 1.36.
For `COc1ccc2c(c1)O[C@@H](C)CN(CCC(=O)N1CCOCC1)C2` the same measures were -9% and 1.58.
The like results for `C[C@]1(NC(=O)Nc2cccc3ccsc23)CCOC1` were, in that order, -5% and 0.7.
For `CC(C)N1CCN(Cc2ccc(C3CCCC3)s2)C[C@@H]1CCO` the same measures were -9% and 1.16.
